The results in this text go back to the supplement of paper PMC11417369.

The list shows a part of the results.

In the assay the test system is PfSIP2 AP2 domain 1 (GST-tagged). In words: gcPBM binding intensity (ln(normalized median fluorescence intensity)); higher = stronger DNA binding. An outline of the steps: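 Binding intensity values are the highest Masliner-normalised natural-log median intensity among replicate spots of either probe orientation. The binding step lasted 1 h in 1× PBS with 1% milk, 0.2 mg/ml BSA, 0.5% salmon testes DNA and 0.03% Triton X-100, using GST-tagged P. falciparum DNA-binding domains expressed in E. coli on an Agilent 4 × 180k array of primer-extended double-stranded 36-bp intergenic genomic probes plus negative controls. Alexa488 anti-GST antibody and a 488 nm scan detected bound protein.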
On to “ACATAATATATATATTGTACAAATATATTATTGTTA [XGTACX_site3385]”, for which the “gcPBM binding intensity (ln)” value amounted to 7.08.

Take “AGCCACGGGTTATATACACACATAATCAAATAAAAT [CACACA_site6117]”: the “gcPBM binding intensity (ln)” value turned out to be 6.94.

Regarding ATTTTTAATGGATAAGTGCATAATATTATGATGCAA, the “gcPBM binding intensity (ln)” value was 8.46.

With “TATGTAATAAAATATACACACAATATACTTATATAT [CACACA_site3682]”, the “gcPBM binding intensity (ln)” value stood at 7.06.

Consider “AATACATTTATGAGCTGTACACATTTATTTGAGCTA [XGTACX_site7695]”, for which the “gcPBM binding intensity (ln)” value is 6.89.

With “AGTGTAATTTTCCACTGTACTTTTCTTGTATATAAT [XGTACX_site4201]”, the “gcPBM binding intensity (ln)” value worked out at 6.91.

Regarding “ATATATATTAATATTTGTACATAAAATTATTTCAAT [XGTACX_site5364]”, the “gcPBM binding intensity (ln)” value was determined as 7.14.

With “TACCTTTCTTATTATTGAAAAGGAATATATAAATAG [CACACA_negctrl_site272]”, the “gcPBM binding intensity (ln)” value was 6.92.

In the case of “AATAATAATTTGAATACACACAATAATATATATATA [CACACA_site2059]”, the “gcPBM binding intensity (ln)” value stood at 8.45.

With “ATACAAAAAATCACATGTACATATTCTTAAATGGTA [XGTACX_site8502]”, the “gcPBM binding intensity (ln)” value stood at 7.1.

Take “TTATATCATTTTCCTGCACACATAAATTTATATAAT [CACACA_site8257]”: the “gcPBM binding intensity (ln)” value turned out to be 7.58.

“ACAAAATATACAAAATGTACAAAATATACAAAATGT [XGTACX_site6467]”: the “gcPBM binding intensity (ln)” value was found to be 6.98.

Consider “CATATGTATTTATTCACACATATATATATATATATA [CACACA_site4207]”, for which the “gcPBM binding intensity (ln)” value stood at 9.38.

“TATACAGATAAATACACACACACATATATATATATA [CACACA_site4845]”: the “gcPBM binding intensity (ln)” value came to 9.39.

On to “TTATTCTAAAAGTGTTTGCACTTTTATAATCATATA [GTGCAC_site9929]”, for which the “gcPBM binding intensity (ln)” value is 8.02.

Turning to “TATATAAAATAATAATGTACTCATTAAAATTATAGA [XGTACX_site4507]”, the “gcPBM binding intensity (ln)” value was determined as 6.96.

Turning to “AAAGAAAAAAAAAAAAAAAAAAAAAAAATTATACAT [CACACA_negctrl_site7]”, the “gcPBM binding intensity (ln)” value was found to be 6.73.

With “GAATTTCGATATATGTGTACGCATTTGTATTATAGG [XGTACX_site6332]”, the “gcPBM binding intensity (ln)” value was determined as 7.26.

In the case of “TACATATTGCACAAATAAAAAAGAACAAAAAAAAAA [CACACA_negctrl_site1200]”, the “gcPBM binding intensity (ln)” value worked out at 7.42.

On to “ATATATATATATATATGTACATATATTCGATTATTA [XGTACX_site557]”, for which the “gcPBM binding intensity (ln)” value came out at 9.84.

In the case of “ATAATATTTCTTACCTTTGGATGTTCTAATTTTTTT [CACACA_negctrl_site1317]”, the “gcPBM binding intensity (ln)” value was 6.87.

For “TACTTTATATTATATATATATATATATATATATATA [CACACA_negctrl_site1765]”, the “gcPBM binding intensity (ln)” value amounted to 9.12.

Regarding “AAAAATAACATATAAACACACATATATATATATATA [CACACA_site3802]”, the “gcPBM binding intensity (ln)” value is 9.31.

Turning to “TACATAAAATATATCACACATATAATATATATATAT [CACACA_site5834]”, the “gcPBM binding intensity (ln)” value stood at 8.89.
